Experimental data published in the BET-seq Pho4 binding data (Le et al. 2018).
The other results are listed elsewhere or left out. The energies were worked out here from pooled read counts, against the library average; single values are noisy.

The sequences below were run against T1, Pho4 (S. cerevisiae) (UniProt P07270) (assay: relative binding free energy (BET-seq); higher = weaker binding). Details: reference: library average.
T1 sequence: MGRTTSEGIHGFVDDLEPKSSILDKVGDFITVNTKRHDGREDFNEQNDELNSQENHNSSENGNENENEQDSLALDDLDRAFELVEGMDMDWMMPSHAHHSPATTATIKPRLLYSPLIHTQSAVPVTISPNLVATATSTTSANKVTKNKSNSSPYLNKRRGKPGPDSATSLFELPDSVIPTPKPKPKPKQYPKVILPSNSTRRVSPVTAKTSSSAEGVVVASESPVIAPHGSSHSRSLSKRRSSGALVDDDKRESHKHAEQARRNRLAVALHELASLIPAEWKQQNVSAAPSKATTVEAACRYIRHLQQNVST
TAGTTCACGTGCGAGG was tested, and the “relative binding free energy” value was 0.32 kcal/mol. With TATCGCACGTGGGTTA the “relative binding free energy” value was -0.27 kcal/mol. In the case of TAAGTCACGTGATGTC, the “relative binding free energy” value was 0.31 kcal/mol. With GGGTTCACGTGAATCG the “relative binding free energy” value was 0.34 kcal/mol. In the case of TTGTGCACGTGTCGAG, the “relative binding free energy” value was 0.04 kcal/mol. GGTCACACGTGTGGGT was tested, and the “relative binding free energy” value was 0.13 kcal/mol. In the case of GATAACACGTGAAGTG, the “relative binding free energy” value was 0.25 kcal/mol. In the case of GTACGCACGTGTAGTT, the “relative binding free energy” value was 0.05 kcal/mol. With AGACACACGTGTGGGG the “relative binding free energy” value was 0.04 kcal/mol. TATTGCACGTGAAGTG was tested, and the “relative binding free energy” value was 0.18 kcal/mol. GTTTGCACGTGGGGCA was tested, and the “relative binding free energy” value was -0.06 kcal/mol. With CTGGACACGTGTAGTG the “relative binding free energy” value was -0.1 kcal/mol. TGCGACACGTGTGTGA was tested, and the “relative binding free energy” value was 0.12 kcal/mol. AAGTGCACGTGGTTCG was tested, and the “relative binding free energy” value was 0.01 kcal/mol. For GGGGTCACGTGGCGAA, the “relative binding free energy” value was 0.17 kcal/mol. With TTGGACACGTGAGCGA the “relative binding free energy” value was 0.24 kcal/mol. ATTAACACGTGTTCAG was tested, and the “relative binding free energy” value was 0.09 kcal/mol. In the case of ATGGACACGTGTGCGG, the “relative binding free energy” value was 0.03 kcal/mol. GTTTGCACGTGTGACA was tested, and the “relative binding free energy” value was 0.07 kcal/mol. ATGGCCACGTGGGGCT was tested, and the “relative binding free energy” value was -0.17 kcal/mol. In the case of TGTTTCACGTGGGCTA, the “relative binding free energy” value was 0.09 kcal/mol. For AAGGGCACGTGTTTAG, the “relative binding free energy” value was -0.07 kcal/mol. For CTGTGCACGTGGAGGA, the “relative binding free energy” value was -0.08 kcal/mol. With GTGTCCACGTGGCTGG the “relative binding free energy” value was -0.07 kcal/mol. For ATAACCACGTGTGTGT, the “relative binding free energy” value was 0.03 kcal/mol. For TTAGGCACGTGGTGAA, the “relative binding free energy” value was -0.34 kcal/mol. With TAGATCACGTGTGATT the “relative binding free energy” value was 0.15 kcal/mol. With GCGTGCACGTGAGGGT the “relative binding free energy” value was 0.18 kcal/mol. In the case of AGAGTCACGTGCGGGG, the “relative binding free energy” value was 0.08 kcal/mol. TCGTTCACGTGCGAGG was tested, and the “relative binding free energy” value was 0.35 kcal/mol. In the case of CAGGGCACGTGTTAGT, the “relative binding free energy” value was -0.23 kcal/mol. For GTTGGCACGTGCTTTG, the “relative binding free energy” value was -0.21 kcal/mol. GAGGTCACGTGGTCAT was tested, and the “relative binding free energy” value was 0.05 kcal/mol. In the case of TGTTGCACGTGAGAGC, the “relative binding free energy” value was 0.26 kcal/mol. In the case of CAATGCACGTGGGTTA, the “relative binding free energy” value was -0.15 kcal/mol. TAGATCACGTGCTGGG was tested, and the “relative binding free energy” value was 0.27 kcal/mol. GGGGCCACGTGGTAGT was tested, and the “relative binding free energy” value was -0.03 kcal/mol. In the case of TTAGGCACGTGGAGGT, the “relative binding free energy” value was -0.05 kcal/mol. For GAGGGCACGTGGGCGT, the “relative binding free energy” value was -0.14 kcal/mol. AGGGGCACGTGCTGGC was tested, and the “relative binding free energy” value was -0.05 kcal/mol. TGATTCACGTGGGTAC was tested, and the “relative binding free energy” value was 0.07 kcal/mol. ATGTGCACGTGAGGCA was tested, and the “relative binding free energy” value was 0.17 kcal/mol. In the case of TTGTGCACGTGTTTGT, the “relative binding free energy” value was 0.02 kcal/mol. TTTTCCACGTGGGTTC was tested, and the “relative binding free energy” value was 0.07 kcal/mol. With CGCGACACGTGGTGGG the “relative binding free energy” value was -0.03 kcal/mol. AGTGGCACGTGGGCCG was tested, and the “relative binding free energy” value was -0.31 kcal/mol. TATAGCACGTGATTGA was tested, and the “relative binding free energy” value was 0.1 kcal/mol. In the case of ATTTTCACGTGGCGGT, the “relative binding free energy” value was 0.22 kcal/mol. AGGCTCACGTGGAGGG was tested, and the “relative binding free energy” value was 0.09 kcal/mol. With GAGGACACGTGTTAGT the “relative binding free energy” value was 0.21 kcal/mol. With TAATTCACGTGCGTGT the “relative binding free energy” value was 0.23 kcal/mol. With TGTGTCACGTGGTCAA the “relative binding free energy” value was -0.11 kcal/mol. In the case of AGGGTCACGTGATTGG, the “relative binding free energy” value was 0.22 kcal/mol. In the case of TAGATCACGTGTATAT, the “relative binding free energy” value was 0.21 kcal/mol. For ATGTGCACGTGAATGT, the “relative binding free energy” value was 0.12 kcal/mol. With TCGTCCACGTGATGGT the “relative binding free energy” value was 0.22 kcal/mol. For AAGAGCACGTGTCGGT, the “relative binding free energy” value was -0.11 kcal/mol. For AGTTGCACGTGCAAGT, the “relative binding free energy” value was -0.07 kcal/mol. GGCGGCACGTGTATGG was tested, and the “relative binding free energy” value was 0.06 kcal/mol. With GATGGCACGTGGTTCG the “relative binding free energy” value was -0.14 kcal/mol. With TGTTTCACGTGCCTGG the “relative binding free energy” value was 0.22 kcal/mol. With AGCTTCACGTGCGGTG the “relative binding free energy” value was 0.16 kcal/mol. In the case of ACTTACACGTGAGGTT, the “relative binding free energy” value was 0.3 kcal/mol. For TTACTCACGTGGGTTG, the “relative binding free energy” value was 0.06 kcal/mol. TGGGTCACGTGCAGGG was tested, and the “relative binding free energy” value was 0.09 kcal/mol. TATTTCACGTGCTTTT was tested, and the “relative binding free energy” value was 0.23 kcal/mol. For TTCTACACGTGAGTTG, the “relative binding free energy” value was 0.33 kcal/mol. In the case of ATTGGCACGTGGGCGT, the “relative binding free energy” value was -0.29 kcal/mol. For TAATGCACGTGAGTCG, the “relative binding free energy” value was 0.28 kcal/mol. For TTAGTCACGTGGGTTG, the “relative binding free energy” value was 0.02 kcal/mol. AAAGGCACGTGTTTGC was tested, and the “relative binding free energy” value was -0.07 kcal/mol. In the case of AGACGCACGTGTAGTG, the “relative binding free energy” value was -0.07 kcal/mol. TTAAGCACGTGTTGCA was tested, and the “relative binding free energy” value was -0.2 kcal/mol. For GGTAGCACGTGAAGGT, the “relative binding free energy” value was 0.25 kcal/mol. For GTTACCACGTGGGATG, the “relative binding free energy” value was -0.17 kcal/mol. In the case of GGGGGCACGTGGGTCG, the “relative binding free energy” value was -0.15 kcal/mol. TGATACACGTGGAGGC was tested, and the “relative binding free energy” value was 0.06 kcal/mol. With GATTACACGTGGTACG the “relative binding free energy” value was 0.19 kcal/mol. For AGCTTCACGTGGTTCG, the “relative binding free energy” value was 0.25 kcal/mol. For AGTTGCACGTGTAGTA, the “relative binding free energy” value was 0.07 kcal/mol. With TGCTTCACGTGGTTGA the “relative binding free energy” value was 0.37 kcal/mol. For GATCGCACGTGTTGGG, the “relative binding free energy” value was -0.02 kcal/mol. In the case of TTAAACACGTGGGAGA, the “relative binding free energy” value was -0.08 kcal/mol. In the case of AGGCACACGTGTTCGT, the “relative binding free energy” value was 0.19 kcal/mol. In the case of GTTTACACGTGTAGTG, the “relative binding free energy” value was 0.23 kcal/mol. For CTGGACACGTGGGATG, the “relative binding free energy” value was -0.1 kcal/mol. CGTTCCACGTGGTTGT was tested, and the “relative binding free energy” value was -0.03 kcal/mol. CTGTGCACGTGTTGGT was tested, and the “relative binding free energy” value was 0.01 kcal/mol. For GTTAACACGTGGGTAT, the “relative binding free energy” value was 0.09 kcal/mol. With TCTGGCACGTGTTTAA the “relative binding free energy” value was -0.06 kcal/mol. GTGGTCACGTGGACTG was tested, and the “relative binding free energy” value was 0.04 kcal/mol. For AGTTTCACGTGCTATT, the “relative binding free energy” value was 0.21 kcal/mol. For TAATTCACGTGGACGG, the “relative binding free energy” value was 0.22 kcal/mol. For CTAGTCACGTGTTGTT, the “relative binding free energy” value was 0.07 kcal/mol. For CGGTACACGTGCTGGT, the “relative binding free energy” value was -0.05 kcal/mol. With TGTAACACGTGATTTG the “relative binding free energy” value was 0.19 kcal/mol. TGCTGCACGTGGTATA was tested, and the “relative binding free energy” value was -0.17 kcal/mol. For GAGGACACGTGAAGGG, the “relative binding free energy” value was 0.37 kcal/mol. In the case of TATTGCACGTGAATAG, the “relative binding free energy” value was 0.24 kcal/mol. In the case of ATATACACGTGGGTTG, the “relative binding free energy” value was -0.07 kcal/mol. For GGTGGCACGTGATTGT, the “relative binding free energy” value was 0.1 kcal/mol. With TTTTTCACGTGCAGTA the “relative binding free energy” value was 0.36 kcal/mol. In the case of CGGTGCACGTGTGTGA, the “relative binding free energy” value was 0.07 kcal/mol. GGTTGCACGTGTCTAT was tested, and the “relative binding free energy” value was 0.04 kcal/mol. With TAAGACACGTGTGCGT the “relative binding free energy” value was -0.03 kcal/mol. TAACGCACGTGCGTTT was tested, and the “relative binding free energy” value was 0.12 kcal/mol. In the case of AGGTCCACGTGTATTG, the “relative binding free energy” value was -0.19 kcal/mol. In the case of TAGGTCACGTGCGCTT, the “relative binding free energy” value was 0.02 kcal/mol. CATGACACGTGTGTTG was tested, and the “relative binding free energy” value was -0.17 kcal/mol. With CTGTTCACGTGACGGG the “relative binding free energy” value was 0.39 kcal/mol. CTGGCCACGTGGAGTG was tested, and the “relative binding free energy” value was -0.07 kcal/mol. AGAATCACGTGTGGTT was tested, and the “relative binding free energy” value was 0.3 kcal/mol. With GCAGGCACGTGAAGGT the “relative binding free energy” value was 0.23 kcal/mol. With GCGGTCACGTGTAGAA the “relative binding free energy” value was 0.3 kcal/mol. With GCGTGCACGTGAGCTG the “relative binding free energy” value was 0.07 kcal/mol.
